Data as given in the RNAGym collection of RNA variant scans (doi:10.1073/pnas.2313332121).
Variants at the floor of the assay are shown more often than the library holds them.

B1: TPR 5TU (parent)
chain: GGAUCUUCUCGAUCUAACAAAAAAGACAAAUCUGCCACAAAGCUUGAGAGCAUCUUCGGAUGCAGAGGCGGCAGCCUUCGGUGGCGCGAUAGCGCCAACGUUCUCAACUAUGACACGCAAAACGCGUGCUCCGUUGAAUGGAGUUUAUCAUG

Variants of: B1
Assay: polymerase ribozyme fitness, log enrichment relative to wild type (log ratio); higher = more active; in vitro selection for triplet polymerase activity
How it was run: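 Each subunit of a heterodimeric triplet polymerase ribozyme was mutagenized into a library by PCR, transcribed, and subjected to one round of in vitro selection, run in triplicate. Libraries were annealed with a biotinylated primer, the partner subunit and triplets, incubated frozen at −7 °C, and extended constructs were gel-excised, captured on streptavidin beads and recovered by RT-PCR. Input and output libraries were sequenced on Illumina, keeping genotypes with ≥10 input reads and ≥1 read per output. Fitness is log base 2 of genotype enrichment divided by wild-type enrichment, from inverse-variance-weighted replicate averages.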

Variant | polymerase ribozyme fitness (log ratio)
GGAUCUUCUCGAUCUAACAAAAAAGACAAACCUGCCACAAAGCUUGAGAGCAUCUUCGGAUGCAGAGGCGGCAGCCUUCGGUGGCGCGAUAGGGCCAACGUUCUCAACUAUGACACGCAAAACGCGUGCUCCGUUGAAUGGAGUUUAUCAUG | -3.06
GGAUCUUCUCGAUCUAACAAAAAAGACAAACCUGCCACAAAGCUUGAGAGCAUCUUCGGAUGUAGAAGCGGCAUCCUUCGGUGGCGCGAUAGCGUCAACGUUCUCAACUAUGACAUGGAAAACGGGUGCUCCGUUGAAUGGAGUUUAUCAUG | ≤ -4.2
GGAUCUUCUCGAUCUAACAAAAAAGACAAACCUGCCACAAAGCUUGAGAGCAUCUUCGGAUGCAGAGGCGGCAGCCUUCGGUGGCGCGAUAGCGCUAACGUUCACAACUAUGACACGCAAAAUGCAUGCUCCGUUGAAUGGCGUUUCUCAUG | ≤ -4.2
GGAUCUUCUCGAUCUAACAAAAAAGACAAACCUGUCACAAGGCUUGAGAGCAUUUUCGGAUGCAGAGGCGGCAGCCUUCGGUGGCCCGAUAGCGCCAACGUUCUCAACUAUGACACGCAAAACGCGUGCUCCGUUGAAUGGAGUUUAUCAUG | -2.75
GGAUCUUCUCGAUCUAACAAAAAAGACAAACAUGCCACAAAGCUUGAGAGCAUCUUUGGAUGCAGAGGCGGCAGCCUUCGGUGACGCGAUAGCGCCAACAUUCUCAACUAUGACACGCAAUACGCGUGCUCCGUUGAAUCGAGUUUUUCAUG | ≤ -4.2
GGAUCUUCUCGAUCUAACAAAAAAGACAAACCUGCCACAAAGCUUGAGAGCAUCUUCGGAUGCAGAGGCGGCAGCCUUCCGUGGCGCGAUAGCGCCAACGUUCUCAACUAUGACACGCAAAACACGUGCUCCGUUGAAUGGAGUUAAUCAAG | ≤ -4.2
GGAUCUUCUCGAUCUAACAAAAAAGACAAACCUGACACAAAGCUUGAGAGUAUCUUCGGAUGCAGAGGCGGCAGCGUUCCGUGGCGCGAUAGCGCUAACGUUCUCAACUAUGACACGCGAAACGCGUGCUCCGAUGAAUGGAGUUUAUCAUG | ≤ -4.2
GGAUCUUCUCGAUCUAACAAAAAAGACAAACCUGCCACAAAGCUUGAGAGCAUCUUCGGAUGCAGAGGCGGAAGCCUUCGGUGACGCGAUAGCGCCAACGUUCUCAACUAUGACACGCAAAACGCGUGCUCCUUGGAAUGCAGUUUAUCAUG | ≤ -4.2
GGAUCUUCUCGAUCUAACAAAAAAGACAAACCUGCCACAAAGCUUGAGAUCAUCUACGAAUGCAGAGGCGGCAGCCUUCGGUGGCGCGAUAGCUCCAACGGUAUCAACUAUGACAUGCAAAACGCGUGCUACGUUGAAUGGAGUUUAACAUG | ≤ -4.2
GGAUCUUCUCGAUCUAACAAAAAAGACAAACCUGCCACAAAGCUUGAGAGCAUCUUCGGAUGCAGAGGCGGCAGCCUUCGGUGGCGCGAUAGCGAAAACGUUCUCAACUAUGACACGCAAAACGCGUGCUCCGCUGAAUGGAAUGUAUCAUG | -3.45
GGAUCUUCUCGAUCUAACAAAAAAGACAAACAUGCCACAAAGCUUGAGAGCAUCUUCGGAUGCAGAGGCGGCAGCCUUCGGUGGCGCGAUAGCGCCAACGUUCUCAACUAUGACUCGCAAAACGCGUGCGCCGUUGAAUGGAGUUUAUCAUG | ≤ -4.2
GGAUCUUCUCGAUCUAACAAAAAAGACAAACCUGCCACAAAGCUUGAGAGCAUCUUCGGAUGCAGAGGCGGCAGCCUUCGGUGGGGCGAUAGCGCCAGCGUUCUCAACUAUGACACGCAAAACGCGUGCUCCGUUGAAUGGAGUUUAUCAUG | -1.26
GGAUCUUCUCGAUCUAACAAAAAAGACAAACCUGCCACAAAGCUUGAGAGCAUAUUCGGAUGCAGAGGCGGCAGCCUUCGGUGGCGCGAUAGGGCCAACGUUCUCAACUAUGACACGCAAAACGCGUGCUCCGUUGAAUGGAGUUUAUCAUC | ≤ -4.2
GGAUCUUCUCGAUCUAACAAAAAAGACAAACCUGCCACAAAGCUUGAGAGCAUCUUGGGAUGCAGAGGCGGCAGCAUUCGGUGGCGCGAUAGAGGCAACGUUCUCAACUAUGACACGCAAAACGCGUGCUCCGUUGAAUGGAGUUUAUCAUG | ≤ -4.2
GGAUCUUCUCGAUCUAACAAAAAAGACAAACAUGCCACACAGCUUGAGAGCAUCUUCGGAUGCAGAGGCGGCAGCCUUCGGUAGCGCGAUAGCGCCAACGUUCUCAACUAUGACACGCAAAACGCGUGCUCCGUUGAAUGGAGUUUAUCAUG | ≤ -4.2
GGAUCUUCUCGAUCUAACAAAAAAGACAAACCUGCCACAAAGCUUGAGAGCAUCUUCGGAUGCAGAGGCGGCAGCCUUCGGUGGCGCGAUAGCGCCAACGUUCUCAACUAUGACAAGCAAAACGCGUGCUCCGUUGAAUGGAGUUUAUCAUG | 1.96
GGAUCUUCUCGAUCUAACAAAAAAGACAAACCUGCGACAAAGCUUGAGAGCAUCUACGGAUGCAGAGGCCGCAGCCUUCGGUGGCGCGAUAGCACCAACGUUCUCAACUAUGACACGCAAAACGCGUGGUCCGUUGAAUGGAGUUUAUCAUG | -3
GGAUCUUCUCGAUCUAACAAAAAAGACAAACCUCCCACUAAGCUUGAGAGCAUCUUCGGAUGCAGAGGCGGCAGCCUUCGGUUGCGCGAUAGCGCCAACGUUCUCAACUAUGACAGGCAAAACGCGUGCUCCGUUGAAUGGAGUUUAUCAUG | ≤ -4.2
GGAUCUUCUCGAUCUAACAAAAAAGACAAACCUGCCACAAAGCUUGAGAGAAUCUUCGGAUGCAGAGGUGGCAGCCUUCGAUGGCGCGAUUGCGCCAACGUUCUCAACUAUGACACGCAAAACACGUGCUCCGUUGAAUGGAGGUUAUCAUG | ≤ -4.2
